Laboratory results reported in PubChem BioAssay (Tox21).
The shares of active, inactive and inconclusive entries below differ from those in the screen. For part of these data: Potencies of inconclusive entries are doubtful fits and often do not repeat. Where a structure was tested more than once in an assay, its records may differ in their call. Calls of active or inactive are those of the source. Unless noted, calls come from the whole dose curve; as a rule, active = well fitted curve in the direction sought with a large enough effect in the repeat runs; inconclusive = weak or mixed curves; inactive = no such curve, though single readings can be large; an effect the other way counts as inactive or inconclusive.

Key:
[1] = biological target: Peroxisome proliferator-activated receptor delta (Homo sapiens) (UniProt Q03181); assay: qHTS assay to identify small molecule agonists of the peroxisome proliferator-activated receptor delta (PPARd) signaling pathway (AID 743212; calls by dose curve; note: potency is the fitted concentration of half-maximal effect; for activation: % is set by controls: 0 for no effect and ±100 for the full control effect); conditions: HEK293H PPARd-UAS-bla, beta-lactamase FRET ratio, 17 h; activation: at 62.6 µM (top of the series) unless noted
How it was run: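 Tox21 library screened in GeneBLAzer PPARd UAS-bla HEK293H cells. After compound treatment at 37 C, a FRET-based beta-lactamase substrate was applied for 2 h and fluorescence recorded.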

[2] = qHTS assay to identify small molecule antagonists of the peroxisome proliferator-activated receptor delta (PPARd) signaling pathway - cell viability counter screen (AID 743213); conditions: PPARd-bla HEK293H viability, CellTiter-Glo luminescence, 17 h; viability change, negative = cytotoxic: at 62 µM (top of the series) unless noted; note: nearly all actives have a fitted effect of over 50% in size; note: potency is the fitted concentration of half-maximal effect
How it was run: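 PPARd-bla HEK293H cells (3000/well) got compound plus 300 nM L165041 agonist for 17 h at 37 C. Viability in the same wells came from CellTiter-Glo luminescence after 30 min at room temperature.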

[3] = biological target: Peroxisome proliferator-activated receptor delta (Homo sapiens) (UniProt Q03181); assay: qHTS assay to identify small molecule antagonists of the peroxisome proliferator-activated receptor delta (PPARd) signaling pathway (AID 743215; active = well fitted inhibition curve with a large enough effect in the signal ratio in the repeat runs, not every such curve was filed as active; inconclusive = weak or mixed curves, or effect the other way; inactive = no such curve, though single readings can be large or run the other way; the % refers to the signal ratio;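 note: cells stimulated with agonist L165041 at 300 nM final during compound exposure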; note: potency is the fitted concentration of half-maximal effect; for ratio activity, negative = inhibition: % is set by controls: 0 for no effect and ±100 for the full control effect); conditions: HEK293H PPARd-UAS-bla, beta-lactamase FRET ratio, antagonist, 17 h; ratio activity, negative = inhibition: at 62 µM (top of the series) unless noted
How it was run: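 Here, a reporter line (HEK293H, beta-lactamase under a UAS) measures PPARd signaling. Compounds are tested against agonist L165041 at 300 nM final concentration over 17 h at 37 C, with fluorescence read after substrate.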

[4] = qHTS assay to identify small molecule agonists of the farnesoid-X-receptor (FXR) signaling pathway - cell viability counter screen (AID 743218); conditions: FXR-bla HEK293T viability, CellTiter-Glo luminescence, 16 h; viability change, negative = cytotoxic: at 62.6 µM (top of the series) unless noted; note: potency is the fitted concentration of half-maximal effect; nearly all actives have a fitted effect of over 45% in size
How it was run: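 Quantitative HTS counter screen measuring ATP-based viability via CellTiter-Glo luminescence in HEK 293T cells carrying a UAS-driven beta-lactamase reporter, after 16 h compound exposure at 37 C.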

[5] = qHTS assay to identify small molecule agonists of the vitamin D receptor (VDR) signaling pathway - cell viability counter screen (AID 743224); conditions: VDR-bla HEK293T viability, CellTiter-Glo luminescence, 16 h; activity change, negative = cytotoxicity: at 62.6 µM (top of the series); note: potency is the fitted concentration of half-maximal effect; nearly all actives have a fitted effect of over 50% in size
How it was run: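 CellTiter-Glo viability readout on VDR-bla cells, measured after 16 h of compound treatment at 37C in the same wells.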

[6] = qHTS assay to identify small molecule antagonists of the vitamin D receptor (VDR) signaling pathway - cell viability counter screen (AID 743225); conditions: VDR-bla HEK293T viability, CellTiter-Glo luminescence, 16 h; viability change, negative = cytotoxic: at 61 µM (top of the series) unless noted; note: nearly all actives have a fitted effect of over 50% in size; note: potency is the fitted concentration of half-maximal effect; for viability change, negative = cytotoxic: % is set by controls: 0 for no effect and ±100 for the full control effect
How it was run: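 Cytotoxicity counter screen read by CellTiter-Glo luminescence (30 min, room temperature) in the same wells as the VDR-bla antagonist readout. HEK 293T VDR-UAS-bla cells had 16 h at 37C with compound and 3 nM (final) 1-alpha,25-dihydroxyvitamin D3, then 2 h with FRET substrate.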

[7] = qHTS assay to identify small molecule antagonists of the retinoid-related orphan receptor gamma (ROR-gamma) signaling pathway - cell viability counter screen (AID 1159520); conditions: Tet-on RORgamma CHO cells viability, ATP luminescence, 16 h; series mostly up to 92.4 µM; note: nearly all actives have a fitted effect of over 50% in size; note: potency is the fitted concentration of half-maximal effect
How it was run: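 Tet-on ROR gamma CHO cells were given compounds for 2 hr, then doxycycline hyclate at 1 uM final, and incubated 16 hr at 37 C. Viability was measured as ATP content by CellTiter-Glo luminescence.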

[8] = qHTS assay to identify small molecule agonists of the AP-1 signaling pathway (AID 1159526; calls by dose curve; note: potency is the fitted concentration of half-maximal effect; for activation: % is set by controls: 0 for no effect and ±100 for the full control effect); conditions: ME-180 (cervical carcinoma) AP-1-bla reporter, beta-lactamase FRET ratio, 5 h; activation: at 76.8 µM (top of the series) unless noted
[9] = biological target: Retinoic acid receptor RXR-alpha (Homo sapiens) (UniProt P19793); assay: qHTS assay to identify small molecule agonists of the RXR signaling pathway (AID 1159527; calls by dose curve; note: nearly all actives have a fitted effect of over 35% in size; note: potency is the fitted concentration of half-maximal effect); conditions: HEK293T RXRa-UAS-bla, beta-lactamase ratio, 16 h; activation: at 76.8 µM (top of the series) unless noted
How it was run: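 Agonist-mode beta-lactamase reporter assay: HEK 293T RXR-alpha-UAS-bla cells treated 16 hr at 37 C with compounds, 9-cis retinoic acid as positive control. LiveBLAzer FRET substrate, 405 nm excitation, 460/530 nm emission.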

[10] = biological target: Bile acid receptor (Homo sapiens) (UniProt Q96RI1); assay: qHTS assay to identify small molecule antagonists of the farnesoid-X-receptor (FXR) signaling pathway (AID 743217; active = well fitted inhibition curve with a large enough effect in the signal ratio in the repeat runs, not every such curve was filed as active; inconclusive = weak or mixed curves, or effect the other way; inactive = no such curve, though single readings can be large or run the other way; the % refers to the signal ratio; note: potency is the fitted concentration of half-maximal effect); conditions: HEK293T FXR-UAS-bla, beta-lactamase ratio, CDCA-stimulated, 16 h; activity change, negative = inhibition: at 62.6 µM (top of the series) unless noted
How it was run: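 Test compounds are pin-transferred onto FXR-bla HEK 293T cells, then chenodeoxycholic acid is added at 50 uM final. After 16 h at 37 °C, LiveBLAzer B/G substrate is applied for 2 h at room temperature and fluorescence read.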

[11] = biological target: Bile acid receptor (Homo sapiens) (UniProt Q96RI1); assay: qHTS assay to identify small molecule agonists of the farnesoid-X-receptor (FXR) signaling pathway (AID 743220; active = well fitted activation curve with a large enough effect in the signal ratio in the repeat runs, not every such curve was filed as active; inconclusive = weak or mixed curves, or effect the other way; the % refers to the signal ratio; note: potency is the fitted concentration of half-maximal effect); conditions: HEK293T FXR-UAS-bla, beta-lactamase FRET ratio, 16 h; activation: at 62.6 µM (top of the series) unless noted
How it was run: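 FXR-UAS-bla HEK 293T cells carrying a UAS-driven beta-lactamase reporter were plated for 5 h at 37C/5% CO2, then exposed to DMSO-dissolved Tox21 10K compounds for 16 h at 37C. A LiveBLAzer B/G FRET substrate was loaded for 2 h at room temperature before fluorescence reading.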

[12] = qHTS assay to identify small molecule antagonists of the farnesoid-X-receptor (FXR) signaling pathway - cell viability counter screen (AID 743221; active = well fitted cell-killing curve with a large enough effect in the repeat runs, not every such curve was filed as active; inconclusive = weak or mixed curves, or effect the other way; inactive = no such curve, though single readings can be large or run the other way; note: nearly all actives have a fitted effect of over 50% in size; note: potency is the fitted concentration of half-maximal effect); conditions: FXR-bla HEK293T viability, CellTiter-Glo luminescence, 16 h; activity change, negative = cytotoxicity: at 62.6 µM (top of the series)
How it was run: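 Cytotoxicity counter screen run in the FXR-bla reporter wells: HEK 293T cells exposed to compound with 50 uM (final) chenodeoxycholic acid for 16 h, 37 C, then viability measured by CellTiter-Glo luminescence after 30 min, room temperature.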

[13] = biological target: Vitamin D3 receptor (Homo sapiens) (UniProt P11473); assay: qHTS assay to identify small molecule agonists of the vitamin D receptor (VDR) signaling pathway (AID 743222; calls by dose curve; note: potency is the fitted concentration of half-maximal effect); conditions: HEK293T VDR-UAS-bla, beta-lactamase FRET ratio, 16 h; activation: at 63.5 µM (top of the series) unless noted
How it was run: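 Tox21 cell reporter format: VDR-bla line, 16 h compound exposure in 5% CO2 at 37C, then fluorescence intensity after 2 h with LiveBLAzer B/G FRET substrate.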

[14] = biological target: Vitamin D3 receptor (Homo sapiens) (UniProt P11473); assay: qHTS assay to identify small molecule antagonists of the vitamin D receptor (VDR) signaling pathway (AID 743223; active = well fitted inhibition curve with a large enough effect in the signal ratio in the repeat runs, not every such curve was filed as active; inconclusive = weak or mixed curves, or effect the other way; inactive = no such curve, though single readings can be large or run the other way; the % refers to the signal ratio; note: potency is the fitted concentration of half-maximal effect); conditions: VDR-UAS-bla HEK293T, beta-lactamase FRET ratio, 16 h; activity change, negative = inhibition: at 61 µM (top of the series) unless noted
How it was run: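 Antagonist mode: compound added to VDR-bla cells alongside agonist 1alpha,25-dihydroxyvitamin D3 (3 nM final), incubation 16 h at 37C. Read-out is LiveBLAzer FRET fluorescence, 2 h at room temperature.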

[15] = qHTS assay to identify small molecule agonists of the RXR signaling pathway - cell viability counter screen (AID 1159529); conditions: RXR-alpha-bla HEK293T viability, CellTiter-Glo, 16 h; series mostly up to 76.8 µM; note: nearly all actives have a fitted effect of over 50% in size; note: potency is the fitted concentration of half-maximal effect
How it was run: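 CellTiter-Glo luminescence gave viability in the wells also read for beta-lactamase. Cells (RXR-alpha-UAS-bla HEK 293T, 2% charcoal-stripped FBS medium) had 5 hr plating, then 16 hr compound exposure at 37 C; tetraoctyl ammonium bromide served as positive control.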

[16] = qHTS assay to identify small molecule antagonists of the retinoid acid receptor (RAR) signaling pathway - cell viability counter screen (AID 1159551); conditions: C3RL4 cells viability, ATP luminescence (CellTiter-Glo), 6 h; series mostly up to 92.4 µM; note: % is set by controls: 0 for no effect and ±100 for the full control effect; nearly all actives have a fitted effect of over 35% in size
How it was run: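 In this counter screen, the RARE-luciferase line C3RL4 was exposed for 6 h at 37 C and 5% CO2 to compounds with retinol at 1 uM final. Cellular ATP, read by luminescence, served as the viability measure.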
Tags give direction and shape of the fitted curve or compound fluorescence and quenching.

Sequence of UniProt Q03181 (Q03181 whole entry, looked up): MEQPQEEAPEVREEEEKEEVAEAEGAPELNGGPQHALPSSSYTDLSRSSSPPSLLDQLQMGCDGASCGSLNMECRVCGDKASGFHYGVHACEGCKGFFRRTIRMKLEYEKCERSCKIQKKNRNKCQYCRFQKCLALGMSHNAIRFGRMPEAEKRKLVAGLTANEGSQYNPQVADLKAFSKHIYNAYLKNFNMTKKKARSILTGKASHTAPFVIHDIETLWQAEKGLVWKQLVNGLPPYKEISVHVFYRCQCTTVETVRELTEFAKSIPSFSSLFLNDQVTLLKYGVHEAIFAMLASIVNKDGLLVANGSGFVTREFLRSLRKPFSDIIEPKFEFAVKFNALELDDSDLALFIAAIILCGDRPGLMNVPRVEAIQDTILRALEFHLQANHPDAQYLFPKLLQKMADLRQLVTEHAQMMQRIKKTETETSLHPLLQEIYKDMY
Sequence of UniProt P19793 (P19793 whole entry, looked up): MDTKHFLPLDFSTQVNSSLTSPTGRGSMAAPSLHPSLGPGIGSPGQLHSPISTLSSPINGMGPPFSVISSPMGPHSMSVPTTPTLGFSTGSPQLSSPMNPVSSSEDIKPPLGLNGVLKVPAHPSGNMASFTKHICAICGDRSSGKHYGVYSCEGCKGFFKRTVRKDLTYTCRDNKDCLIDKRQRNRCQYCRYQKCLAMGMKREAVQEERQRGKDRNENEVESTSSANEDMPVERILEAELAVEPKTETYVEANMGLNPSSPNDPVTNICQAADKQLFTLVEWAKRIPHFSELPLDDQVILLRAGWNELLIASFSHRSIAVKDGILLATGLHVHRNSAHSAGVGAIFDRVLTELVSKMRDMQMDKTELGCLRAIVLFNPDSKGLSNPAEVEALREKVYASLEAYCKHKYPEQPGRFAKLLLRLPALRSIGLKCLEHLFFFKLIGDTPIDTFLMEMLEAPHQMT
Sequence of UniProt P11473 (P11473 whole entry, looked up): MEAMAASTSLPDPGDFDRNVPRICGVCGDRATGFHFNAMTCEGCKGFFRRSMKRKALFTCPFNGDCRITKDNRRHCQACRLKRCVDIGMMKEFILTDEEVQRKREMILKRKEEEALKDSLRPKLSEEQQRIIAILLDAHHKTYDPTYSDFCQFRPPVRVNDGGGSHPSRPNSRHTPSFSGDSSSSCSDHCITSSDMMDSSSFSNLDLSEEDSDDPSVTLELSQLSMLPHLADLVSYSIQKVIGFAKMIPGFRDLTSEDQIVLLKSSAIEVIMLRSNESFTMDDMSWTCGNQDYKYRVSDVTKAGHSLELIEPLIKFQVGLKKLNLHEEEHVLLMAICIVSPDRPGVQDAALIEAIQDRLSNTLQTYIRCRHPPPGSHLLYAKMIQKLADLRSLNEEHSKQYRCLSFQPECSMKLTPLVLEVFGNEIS
Sequence of UniProt Q96RI1 (Q96RI1 whole entry, looked up): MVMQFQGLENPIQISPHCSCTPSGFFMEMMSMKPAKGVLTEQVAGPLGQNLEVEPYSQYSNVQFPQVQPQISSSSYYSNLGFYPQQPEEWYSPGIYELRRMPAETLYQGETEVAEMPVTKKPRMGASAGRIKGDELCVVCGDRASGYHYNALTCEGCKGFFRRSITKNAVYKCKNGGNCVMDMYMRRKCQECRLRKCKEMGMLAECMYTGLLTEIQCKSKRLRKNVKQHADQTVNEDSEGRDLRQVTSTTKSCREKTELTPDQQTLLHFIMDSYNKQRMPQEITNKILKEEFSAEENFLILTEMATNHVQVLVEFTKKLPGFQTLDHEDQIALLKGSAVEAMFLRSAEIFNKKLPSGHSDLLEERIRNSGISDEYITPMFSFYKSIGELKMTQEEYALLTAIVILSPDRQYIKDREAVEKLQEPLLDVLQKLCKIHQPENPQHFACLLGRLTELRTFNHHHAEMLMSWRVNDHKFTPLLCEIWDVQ

CCCCC/C=C\C/C=C\CCCCCCCC(=O)OC
active: Potency [4] 54.9 µM | Potency [5] 49 µM
inconclusive: activation [1] -7.76% | Potency [2] 24.5 µM [cytotoxic, single point] | Potency [3] 54.9 µM | ratio activity, negative = inhibition [3] 13.6% | Potency [6] 49 µM [cytotoxic, partial curve, poor fit] | Potency [7] 68.6 µM [cytotoxic, partial curve, poor fit] | Potency [8] 43.6 µM | Potency [9] 17.4 µM

COC(=O)C1=C(C)NC(C)=C(C(=O)OCCN2CCN(C(c3ccccc3)c3ccccc3)CC2)C1c1cccc([N+](=O)[O-])c1 (stereo not given)
inactive: Potency [6]
active: Potency [10] 11.9 µM
inconclusive: Potency [1] 8.41 µM [full curve] | Potency [2] 6.68 µM [cytotoxic, full curve] | ratio activity, negative = inhibition [3] -39.6% | Potency [4] 13.3 µM [cytotoxic, partial curve] | Potency [11] 2.66 µM [activator, full curve, poor fit] | Potency [12] 29.8 µM [falling, single point] | Potency [13] 11.9 µM [rising, partial curve] | Potency [14] 21.3 µM [fluorescent, partial curve, poor fit] | Potency [7] 33.5 µM [cytotoxic, partial curve, poor fit] | activation [8] -6.1% [at 35.3 µM] | Potency [9] 2.68 µM [inhibitor, single point]

COC(=O)Nc1nc2ccc(C(=O)c3cccs3)cc2[nH]1
inactive: Potency [7]
inconclusive: Potency [1] 1.33 µM [rising, partial curve] | Potency [2] 3.35 µM [cytotoxic, partial curve, poor fit] | Potency [3] 33.5 µM [activator, single point] | Potency [10] 1.19 µM [rising, partial curve] | Potency [4] 7.5 µM [cytotoxic, partial curve, poor fit] | Potency [12] 33.5 µM [falling, single point] | Potency [14] 0.0239 µM [inhibitor, full curve] | Potency [8] 0.848 µM [activator, full curve] | Potency [9] 6.74 µM [rising, partial curve]

CN(C)C=O
inactive: Potency [7] | Potency [8] | Potency [9]

CN1CCCCC1CCN1c2ccccc2Sc2ccc(S(C)=O)cc21 (stereo not given)
inconclusive: Potency [7] 29.8 µM [cytotoxic, single point] | Potency [8] 10.7 µM [activator, partial curve, poor fit]
inactive: Potency [9]

CCCc1ccccc1
inactive: Potency [12] | Potency [14] | Potency [7] | Potency [8]
inconclusive: activation [9] 16.5%

O=C(NCCN1CCOCC1)c1ccc(Cl)cc1
inconclusive: Potency [4] 0.531 µM [rising, full curve, poor fit] | activation [11] 10.5%
inactive: Potency [7] | Potency [9] | Potency [15]

CC(=O)Nc1ccc2c(c1)Cc1cc(NC(C)=O)ccc1-2
inconclusive: Potency [3] 21.8 µM [activator, single point] | activity change, negative = inhibition [14] -7.31% | Potency [7] 34.4 µM [cytotoxic, partial curve, poor fit]
inactive: Potency [9]

CCc1nn(CCCN2CCN(c3cccc(Cl)c3)CC2)c(=O)n1CCOc1ccccc1
inactive: Potency [2] | Potency [16]
inconclusive: Potency [1] 15 µM [rising, partial curve, poor fit] | Potency [13] 0.0007 µM | activity change, negative = inhibition [14] -10.1% | Potency [7] 21.1 µM [cytotoxic, partial curve, poor fit] | Potency [9] 23.9 µM [inhibitor] | Potency [15] 12 µM [cytotoxic, partial curve, poor fit]

CC(c1cc(C(C)(C)C)cc(C(C)(C)C)c1O)c1cc(C(C)(C)C)cc(C(C)(C)C)c1O
inconclusive: Potency [7] 21.7 µM [cytotoxic, single point] | Potency [15] 9.77 µM [cytotoxic, partial curve]
active: Potency [9] 3.47 µM

Fc1ccccc1[C@@H](F)COC1CCC(Nc2ncnc3[nH]ncc23)CC1 (stereo not given in full)
inconclusive: ratio activity, negative = inhibition [3] -51% | Potency [14] 38.9 µM [rising, single point] | Potency [5] 4.36 µM [cytotoxic, partial curve, poor fit] | Potency [6] 49 µM [cytotoxic, partial curve, poor fit] | Potency [7] 13.7 µM [cytotoxic, partial curve, poor fit] | Potency [9] 2.19 µM [rising, full curve, poor fit] | Potency [15] 54.9 µM [cytotoxic, single point]
active: Potency [10] 43.6 µM

O=C(O)C[C@H](O)C[C@H](O)/C=C/c1c(C2CC2)nc2ccccc2c1-c1ccc(F)cc1
inactive: activation [9] -9.56% [at 15.8 µM]
inconclusive: Potency [7] 4.61 µM [cytotoxic, partial curve] | Potency [15] 0.928 µM [cytotoxic, full curve, poor fit]
